Data as given in PubChem BioAssay AID1346428 (National Center for Advancing Translational Sciences (NCATS), 2018).
The campaign covered roughly 48,000 compounds. About 1,200 (2.5%) were called active. Another 2% or so got no clear call; they are omitted.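 How the source made its calls: active means activation of at least 60% and not above a set upper limit (about 1 call in 100 departs from these limits); inconclusive means activation of 40% to 60%, or above that upper limit; inactive means activation under 40%.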 Some of the results follow.

Target: Probable G-protein coupled receptor 32 (Homo sapiens) (UniProt O75388)
Assay: qHTS for Agonists of Human Resolvin D1 Receptor DRV1; further: 0% is about no effect
Settings: CHO-K1 GPR32 beta-arrestin PathHunter luminescence, 90 min; at 76.9 µM; hits give high values; zero percent set by DMSO-only wells
Method in brief: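 Step 1: seed CHO-K1 GPR32 beta-arrestin cells, 2,500/well, overnight at 37 °C. Step 2: add compounds, 90 min at 37 °C. Step 3: detection reagent, 1 h ambient, then luminescence.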

activation, inactive:
COc1ccc(S(=O)(=O)c2c(O)c3ccc(C(=O)NCc4ccc(F)cc4)cc3[nH]c2=O)cc1 -14%
COc1ccc(NC(=O)CSc2nc(-c3ccc(F)cc3)[nH]c2-c2ccc(C)cc2)cc1OC -21.7%
CC(=O)c1ccc(NC(=O)c2cnn(-c3cccc(F)c3)c2-n2cccc2)cc1 -8.22%
CC[C@@H](CO)NCCN[C@@H](CC)CO -26.2%
CCOc1ccc(CCNC(=O)c2ccc3c(c2)c(C)c(C)n3Cc2ccccc2)cc1OCC -20.5%
O=C(Nc1ccc(Oc2ccccc2)cc1)C1CCN(S(=O)(=O)c2ccc(Cl)cc2)CC1 -2.66%
O=S(=O)(c1ccc(Cl)cc1)c1nc(-c2ccco2)oc1SCc1ccc(F)cc1 -22.6%
COc1ccc(CCN2C(=O)c3[nH]nc(-c4ccccc4O)c3C2c2ccc(OC)cc2)cc1 (stereo not drawn) -9.06%
CCOC(=O)c1cc(S(=O)(=O)NCc2ccc(C)cc2)[nH]n1 -12.5%
COc1ccccc1NC(=O)CCCc1nnc2n(C)c(=O)c3sccc3n12 21.4%
CCOc1ccccc1CNC(=O)C1CCN(S(=O)(=O)c2ccc3[nH]c(=O)ccc3c2)CC1 -0.645%
COc1ccccc1NC(=O)CSC1=Nc2ccccc2C2=NC(CCC(=O)NCCc3ccccc3)C(=O)N12 (stereo not drawn) 2.69%
CCOC(=O)c1c(C)oc2ncnc(Nc3ccc(OC)cc3OC)c12 1.11%
CCOc1ccccc1NC(=O)Cn1ncc2c(=O)oc3ccc(C)cc3c21 -6.6%
O=C(Nc1nc2c(s1)CCCCCC2)Nc1ccc(F)cc1F -4.99%
COc1ccc(N2CCN(C(c3ccccc3)c3sc4nc(-c5ccco5)nn4c3O)CC2)cc1 (stereo not drawn) -26.9%
Cc1ccc(C(=O)N2CCc3cc(CNS(=O)(=O)c4cccs4)ccc32)cc1 -17.9%
COc1ccc(-c2noc(CSc3nnc(C)n3-c3ccc(C)cc3)n2)cc1OC 1.99%
CN1C(=O)Cc2cc(S(=O)(=O)NCCc3ccc(Cl)cc3)ccc21 -20.8%
CCCOc1ccc(NC(=O)CC2C(=O)N(c3cccc(OC)c3)C(=O)N2Cc2cccs2)cc1 (stereo not drawn) -16.3%
O=C(CSCc1cnn(-c2ccccc2)c1-n1cccc1)NCc1ccc(Cl)cc1 -28.1%
COc1ccccc1N1CCN(C(=O)c2cn(CC(C)C)c(=O)c3c2c2ccccc2n3C)CC1 -30.4%
O=C(Nc1ccc(O)c(-c2nc3ccccc3o2)c1)c1sc2ccccc2c1Cl -3.52%
CN1C2CCC1CC(OC(=O)C(O)c1ccccc1)C2 (stereo not drawn) 9.54%
CCOc1ccccc1C(=O)NC1(C(F)(F)F)NC(=O)N(CCc2ccc(OC)c(OC)c2)C1=O (stereo not drawn) -4.53%
COc1cc(OC)cc(-c2cc3nc(C)c(CCC(=O)NCc4ccccc4)c(C)n3n2)c1 -19.4%
Cc1cccc(C2C=C(c3ccc(C)c(C)c3)Nc3nnnn32)c1 (stereo not drawn) -42.8%
Cc1cc(F)ccc1S(=O)(=O)Nc1ccc2oc3c(c2c1)CC(C)CC3 (stereo not drawn) 25.9%
Cc1nc2ccn(Cc3ccccc3)c(=O)c2cc1C(=O)N1CCN(c2ccccc2F)CC1 9.21%
CC(C)c1ccc(NC(=O)c2ccc3c(c2)CCN3S(=O)(=O)c2ccccc2)cc1 -5.72%
O=C(Nc1nnc(S(=O)(=O)N2CCCc3ccccc32)s1)c1ccccc1Cl 26%
COc1ccc(CCNC(=O)CCCn2c(=O)c3cccn3c3ccccc32)cc1OC -11%
COc1ccccc1N1CCN(C(=O)C2CCN(S(=O)(=O)Cc3ccccc3)CC2)CC1 47.9%
CCC(Cc1ccccc1)NC(=O)CN1C(=O)COc2ccc(S(=O)(=O)N3CCCCCC3)cc21 (stereo not drawn) 3.73%
Cc1cc2c(cc1NC(=O)c1ccccc1C)n(C)c(=O)c(=O)n2C -18.8%
CCOCCCNC(=O)C1CCN(C(=O)c2cc3sccc3n2C)CC1 -4.54%
CC(C)CCN(Cc1ccco1)C(=O)c1cc2c(s1)-c1ccccc1OC2 0.492%
COc1ccc(NC(=O)CCCN2C(=O)C(c3ccccc3)Oc3cccnc32)c(OC)c1 (stereo not drawn) 32.2%
CCc1ccc(CNC(=O)CCCN2C(=O)CCn3nc(-c4cccn4C)cc32)cc1 -10.3%
CCc1ccc2oc(C(=O)Nc3cccc(Cl)c3C)cc(=O)c2c1 -16.4%
COc1cc(-c2nnc(SCCOc3ccc(Cl)cc3)o2)cc(OC)c1OC -1.47%
O=C(COc1ccccc1)OCc1cc(=O)n2nc(C3CC3)sc2n1 11.6%
Cc1cccc(N2CCN(C(=O)Cc3c(C(=O)O)c(C)cn3C)CC2)c1C 5.57%
Cc1ccc(C(=O)c2c(N)c(-c3nc(-c4ccc5c(c4)OCO5)cs3)c3ccccn23)cc1C -2.89%
COCc1nn2cc(-c3ccc(C)cc3)nc2s1 -10.5%
Cc1ccc(C(=O)Nc2cc(-c3nc4ncccc4o3)ccc2C)c(C)c1 6.17%
CC(=O)c1ccc(N2CCN(C(=O)C3CCN(S(=O)(=O)c4c(C)noc4/C=C/c4ccc(C)cc4)CC3)CC2)cc1 -6.54%
CC(=O)N1CCc2c(sc3c2c(=O)n(Cc2ccccc2)c(=O)n3Cc2ccc(C)cc2)C1 -10.7%
COC(=O)c1ccc(Cn2cnc3nc4c(cc3c2=O)CCCC4)cc1 -12.6%
Cc1ccc(/C=C/c2onc(C)c2S(=O)(=O)N2CCC(C(=O)Nc3cc(C)ccc3C)CC2)cc1 -12.4%
COc1ccccc1CCNC(=O)C(=O)NCC(c1cccs1)S(=O)(=O)c1cccs1 (stereo not drawn) -1.2%
CCOc1ccc(S(=O)(=O)Nc2cccc(-c3ccc(OCC)nn3)c2)cc1 9.45%
Cc1cccc(NC(=O)c2c(C)cc(C)nc2SCC(=O)c2ccccc2)c1 -22.1%
